Measured values taken from PubChem BioAssay AID493208 (National Center for Advancing Translational Sciences (NCATS), 2011).
Hit rate of the full screen: of about 44,000 compounds, about 340 (0.77%) were called active. Another 5% or so got no clear call; they are omitted. The call rests on the fitted dose curve; in most records, active means well fitted inhibition curve with a large enough effect; inconclusive means small, poorly fitted or top-dose-only effect; inactive means flat fitted curve, though single readings scatter. This is one part of the list.

test: Acumen qHTS Assay for Inhibitors of the mTORC1 Signaling Pathway in MEF (Tsc2-/-, p53-/-) Cells: Sytravon; conditions: phospho-rpS6 immunofluorescence/PI, 24 h; series mostly up to 38.3 µM; activity change, negative = inhibition: at the top concentration; further: nearly all actives have a fitted effect of over 50% in size
How it was run: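 Readout is phospho-S6 Alexa 488 signal normalized to PI per well, reported as % active cells with thresholds set from rapamycin (7.5 nM) and DMSO controls. Cells: Tsc2-/-, p53-/- MEFs, 24 hrs compound at 37 C; PI cell number serves as viability.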

Activity change, negative = inhibition, inactive:
O=C(Nc1ccc(Cl)cc1)c1cc2c(Cl)nc3ccccc3c2s1 1.07%
COC(=O)CSc1nc2sc3c(c2c(=O)n1Cc1ccccc1)CCC(C(C)(C)C)C3 (centres undefined) -4.42%
CCc1ccc(CNC(=O)c2nn(-c3ccc(OC)c(Cl)c3)c(=O)c3c2c2ccccc2n3C)cc1 -12.1%
CCN(Cc1ccccc1)C(=O)CN1C(=O)CSc2ccc(S(=O)(=O)N(CC)CC)cc21 -13.4%
COc1ccc(-c2nn(CC(=O)NCc3ccccc3)c3c2cnc2ccc(F)cc23)cc1 -10%
CCOc1ccccc1NC(=O)CN1C(=O)COc2ccc(S(=O)(=O)Nc3ccccc3)cc21 -4.87%
Cc1ccc(-c2nc3nc(C)cc(N4CCN(c5cccc(C)c5)C(C)C4)n3n2)cc1 (centres undefined) 3.21%
O=C(Cn1c(=O)nc(-c2ccccc2F)c2cc(Cl)ccc21)Nc1ccccc1C(F)(F)F 11%
Cc1ccc(NC(=O)C2CCCN(S(=O)(=O)c3ccc4[nH]c(=O)ccc4c3)C2)cc1C (centres undefined) -6.68%
COc1cc2oc(=O)c(CC(=O)NCCc3ccccc3F)c(C)c2cc1OC -1.81%
CCCCN(C)CCCNC(=O)CN1C(=O)CSc2ccc(S(=O)(=O)N3CCOCC3)cc21 12.2%
O=C(NCc1cccs1)c1nn(-c2ccccc2F)nc1CO -11.2%
CCCCNC(=O)Cn1ncc2c(C)n(Cc3cccc(Cl)c3)c(C)c2c1=O -2.51%
CCNC(=O)c1c(NC(=O)Cc2coc3cc(C)ccc23)sc2c1CCCC2 -5.01%
CCn1c(C(=O)NCc2ccc(OC)cc2)cc2sc(Cl)cc21 -6.08%
CCn1cc(C(=O)N2CCN(c3ccccc3)CC2)c(=O)c2cc(S(=O)(=O)N3CCCC3)ccc21 -7.27%
COc1cccc(C(=O)Nc2nc3nc(C)c(C)c(=O)n3[nH]2)c1 -11%
O=C(Nc1c(O)c2ccccc2oc1=O)c1cccc(F)c1 -0.34%
CCc1ccccc1NC(=O)Cc1cn(C)c2ccccc12 -17.8%
Cc1ccc(Nc2ncnc3onc(C)c23)cc1Cl 0.561%
CCOc1ccc(S(=O)(=O)Nc2cccc(C)c2)c2cccnc12 -12.2%
Cc1cc(C)cc(NC(=O)c2ccc3c(O)c(S(=O)(=O)c4ccccc4)c(=O)[nH]c3c2)c1 -3.06%
Cc1c(Cl)cccc1NC(=O)CSc1ncc(S(=O)(=O)c2ccc(C(C)C)cc2)c(=O)[nH]1 -17.9%
COc1cc(Cl)c(C)cc1NC(=O)c1ccc(CN2C(=O)CCn3nc(C)cc32)cc1 -6.46%
COC(=O)c1ccccc1NC(=O)C1(c2cccs2)CCOCC1 -1.31%
CCCCOC(=O)c1ccc(NC(=O)Cc2coc3c(C)c(C)ccc23)cc1 -12%
Cc1ccc(OCC(=O)N(Cc2ccco2)c2ccccn2)cc1 1.27%
CCNC(=O)C1CCCN(c2nnc(C)c3c(C)n(-c4ccc(C)cc4)nc23)C1 (centres undefined) -3.36%
CCOC(=O)c1[nH]c(C)c(CCC(=O)NCc2cccc(C)c2)c1C 0%
CCOC(=O)c1c(C)[nH]c(C)c1S(=O)(=O)N1CCCC(C(=O)Nc2ccc(C)c(N(C)C)c2)C1 (centres undefined) 4.12%
CCC(=O)N1CCc2cc(CNC(=O)Nc3cc(C)ccc3C)ccc21 -0.892%
Oc1c(C(c2ccccc2Cl)N2CCOCC2)sc2nc(-c3ccco3)nn12 (centres undefined) -9.32%
Cc1cccc(CNC(=O)CN2C(=O)C3CCCCN3c3ccc(C(=O)N4CCCC4)cc32)c1 (centres undefined) 1.82%
COc1ccc(CCNS(=O)(=O)c2ccc(F)c(C(=O)Nc3ccc(Cl)cc3)c2)cc1OC -22.4%
Cc1ccc(-c2nnc(Nc3ccc(Cl)c(Cl)c3)c3ccccc23)cc1S(=O)(=O)N(C)C 0.544%
CC(=O)c1cccc(NC(=O)Cn2c(=O)oc3cc(S(=O)(=O)NC4CCCC4)ccc32)c1 -0.707%
CC(=O)c1ccc(Nc2nc3ccccc3nc2-n2nc(C)cc2C)cc1 -2.13%
CC(=O)N1CCN(c2nc3c(C)ccc(Cl)c3s2)CC1 -3.35%
COc1cccc(NC(=O)CSc2nccn2Cc2ccc3c(c2)OCO3)c1 9.86%
Cc1nc(-n2nc(C)c(Cc3ccc(Cl)cc3)c2C)sc1C(=O)N1CCCCC1C (centres undefined) -6.01%
Cc1ccc(C)c(Cn2c3ccccc3c3cnn(CC(=O)NCC(C)c4ccccc4)c(=O)c32)c1 (centres undefined) -7.03%
O=C(CSCc1ccccc1Cl)NCc1ccc(Cl)c(Cl)c1 -5.7%
CCOc1ccccc1Nc1nc(-c2ccc(C)cc2)c(CC(=O)O)s1 -16%
O=c1[nH]c2ccc(NCc3ccc(-c4ccc(Cl)cc4)o3)cc2[nH]1 -1.35%
COc1ccc(CN(C(=O)Nc2cccc(OC)c2)C2CCN(C(C)=O)CC2)cc1 -0.0914%
Cc1ccc(NC(=O)CN2C(=O)CC(c3ccc(F)cc3)=Nc3ccccc32)cc1F -3.12%
COc1ccc(OC)c(NC(=O)C(C)n2nc(C)c3c(C)n(-c4ccccc4)nc3c2=O)c1 (centres undefined) 0%
COc1ccc(C2c3c(oc4ccc(Cl)cc4c3=O)C(=O)N2CCCN(C)C)cc1OC (centres undefined) -0.182%
COc1cccc(CNC(=O)CN2C(=O)N(c3c(C)cccc3C)S(=O)(=O)c3ccccc32)c1OC 4.68%
